The other results are listed elsewhere or left out. Many values rest on one well or one pass, so single values are uncertain.
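Also: cells treated in 1,536-well plates, then fixed and DAPI-stained, with nuclei counted from automated high-throughput microscope images.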

For the first experiment, the system named is COLO792. Put plainly: cell count relative to DMSO control; melanoma cells; higher = more viable cells. The conditions noted are these: library dose: standard library concentration; 72 h; first compound 2 µM.
Molecule `Cn1sc(=O)n(Cc2ccccc2)c1=O` + C#Cc1cccc(Nc2ncnc3cc(OCCOC)c(OCCOC)cc23)c1 [erlotinib] (partner dose 4 µM) yielded a cell count of 42.8%.

`C[C@@H](N)c1ccc(C(=O)Nc2ccnc3[nH]ccc23)cc1` + NC(=O)Nc1cc(-c2cccc(F)c2)sc1C(=O)N[C@H]1CCCNC1 [AZD7762] (partner dose 0.1 µM) displayed a cell count of 63.1%. The same measure, in the same setting: to `Cn1sc(=O)n(Cc2ccccc2)c1=O` + Nc1cccc2c1CN(C1CCC(=O)NC1=O)C2=O [lenalidomide] (partner dose 5 µM) belongs 106%; to `Cn1sc(=O)n(Cc2ccccc2)c1=O` + Cc1cc(N2CCOCC2)cc2[nH]c(-c3c(NC[C@@H](O)c4cccc(Cl)c4)cc[nH]c3=O)nc12 [BMS536924] (partner dose 1 µM), 46.5%. Still for that read-out and setting: the same measure for `C[C@@H](N)c1ccc(C(=O)Nc2ccnc3[nH]ccc23)cc1` + Cn1sc(=O)n(Cc2ccccc2)c1=O [TDZD-8] (partner dose 2 µM): 67.1%; for `CCCCCCCCCCCCCCCCCCOP(=O)([O-])OC1CC[N+](C)(C)CC1` [Perifosine] + C[C@@H](N)c1ccc(C(=O)Nc2ccnc3[nH]ccc23)cc1 [RKI983] (partner dose 2 µM): 64.6%. As to `CCCCCCCCCCCCCCCCCCOP(=O)([O-])OC1CC[N+](C)(C)CC1` [Perifosine] + CCCS(=O)(=O)Nc1ccc(F)c(C(=O)c2c[nH]c3ncc(Cl)cc23)c1F [PLX4720] (partner dose 0.4 µM), the cell count turned out to be 105%. `CCCCCCCCCCCCCCCCCCOP(=O)([O-])OC1CC[N+](C)(C)CC1` [Perifosine] + Nc1ncn([C@H]2C[C@H](O)[C@@H](CO)O2)c(=O)n1 [decitabine] (partner dose 0.5 µM) gave a cell count of 65.1%.

Molecule `Cn1sc(=O)n(Cc2ccccc2)c1=O` + CNC(=O)c1cc(Oc2ccc(NC(=O)Nc3ccc(Cl)c(C(F)(F)F)c3)cc2)ccn1 [sorafenib] (partner dose 2 µM) came in with a cell count of 88.5%.

A further experiment deals with COLO800. The description is as above. Particulars: library dose: standard library concentration; 72 h; first compound 2 µM.
Take `C[C@@H](N)c1ccc(C(=O)Nc2ccnc3[nH]ccc23)cc1` + CC(C)C[C@H](NC(=O)[C@H](Cc1ccccc1)NC(=O)c1cnccn1)B(O)O [Bortezomib] (partner dose 0.005 µM): the cell count is 31.9%. On to `CCCCCCCCCCCCCCCCCCOP(=O)([O-])OC1CC[N+](C)(C)CC1` [Perifosine] + COc1cc2c(Oc3ccc4[nH]c(C)cc4c3F)ncnc2cc1OCCCN1CCCC1 [cediranib] (partner dose 2 µM), for which the cell count came to 60.5%. The molecule `Cn1sc(=O)n(Cc2ccccc2)c1=O` + COc1cc2c(Oc3ccc4[nH]c(C)cc4c3F)ncnc2cc1OCCCN1CCCC1 [cediranib] (partner dose 2 µM) showed a cell count of 16.5%. Still for that read-out and setting: the same measure for `C[C@@H](N)c1ccc(C(=O)Nc2ccnc3[nH]ccc23)cc1` + Clc1ccc(Nc2nnc(Cc3ccncc3)c3ccccc23)cc1 [vatalanib] (partner dose 10 µM): 104%. As for `CCCCCCCCCCCCCCCCCCOP(=O)([O-])OC1CC[N+](C)(C)CC1` [Perifosine] + CC(C)(C)c1cnc(CSc2cnc(NC(=O)C3CCNCC3)s2)o1 [SNS-032] (partner dose 0.05 µM), the cell count is 49.4%.

On to `CCCCCCCCCCCCCCCCCCOP(=O)([O-])OC1CC[N+](C)(C)CC1` [Perifosine] + CNC(=O)c1cc(Oc2ccc(NC(=O)Nc3ccc(Cl)c(C(F)(F)F)c3)cc2)ccn1 [sorafenib] (partner dose 2 µM), for which the cell count turned out to be 79.3%.

Take `CCCCCCCCCCCCCCCCCCOP(=O)([O-])OC1CC[N+](C)(C)CC1` [Perifosine] + COc1cc(Nc2ncc(F)c(Nc3ccc4c(n3)NC(=O)C(C)(C)O4)n2)cc(OC)c1OC [Tamatinib] (partner dose 2 µM): the cell count came to 50.3%. For `C[C@@H](N)c1ccc(C(=O)Nc2ccnc3[nH]ccc23)cc1` + C[C@@H]1CCN(C(=O)CC#N)C[C@@H]1N(C)c1ncnc2[nH]ccc12 [CP690550] (partner dose 5 µM), the cell count was found to be 139%. `C[C@@H](N)c1ccc(C(=O)Nc2ccnc3[nH]ccc23)cc1` + O=C(O)c1ccc2c(c1)nc(Nc1cccc(Cl)c1)c1ccncc12 [CX4945] (partner dose 2 µM) gave a cell count of 37.8%. For `CCCCCCCCCCCCCCCCCCOP(=O)([O-])OC1CC[N+](C)(C)CC1` [Perifosine] + CC(C)C[C@H](NC(=O)[C@H](Cc1ccccc1)NC(=O)c1cnccn1)B(O)O [Bortezomib] (partner dose 0.005 µM), the cell count was found to be 42.1%. For the molecule `Cn1sc(=O)n(Cc2ccccc2)c1=O` + CC(C)C[C@H](NC(=O)[C@H](Cc1ccccc1)NC(=O)c1cnccn1)B(O)O [Bortezomib] (partner dose 0.005 µM), the cell count was 42.2%.

Molecule `CCCCCCCCCCCCCCCCCCOP(=O)([O-])OC1CC[N+](C)(C)CC1` [Perifosine] + O=C(/C=C/c1cccnc1)NCCCCC1CCN(C(=O)c2ccccc2)CC1 [FK866] (partner dose 0.05 µM) registered a cell count of 54.6%.

`Cn1sc(=O)n(Cc2ccccc2)c1=O` + Cc1nc(Nc2ncc(C(=O)Nc3c(C)cccc3Cl)s2)cc(N2CCN(CCO)CC2)n1 [dasatanib] (partner dose 0.02 µM) showed a cell count of 41.7%.

The molecule `Cn1sc(=O)n(Cc2ccccc2)c1=O` + Cc1ccc(NC(=O)c2cccc(N(C)C)c2)cc1NC(=O)c1ccc(O)cc1 [ZM336372] (partner dose 10 µM) displayed a cell count of 17.9%. The same measure, in the same setting: the same measure for `CCCCCCCCCCCCCCCCCCOP(=O)([O-])OC1CC[N+](C)(C)CC1` [Perifosine] + CC(=O)O[C@@]12CO[C@@H]1C[C@H](O)[C@@]1(C)C(=O)[C@H](O)C3=C(C)[C@@H](OC(=O)[C@H](O)[C@@H](NC(=O)OC(C)(C)C)c4ccccc4)C[C@@](O)([C@@H](OC(=O)c4ccccc4)[C@H]21)C3(C)C [Docetaxel] (partner dose 0.0005 µM): 35.2%; for `Cn1sc(=O)n(Cc2ccccc2)c1=O` + O=C(CCCCCCC(=O)Nc1ccccc1)NO [vorinostat] (partner dose 0.4 µM): 74.1%; for `Cn1sc(=O)n(Cc2ccccc2)c1=O` + NC1(c2ccc(-c3nc4ccn5c(=O)[nH]nc5c4cc3-c3ccccc3)cc2)CCC1 [MK2206] (partner dose 2 µM): 41.9%. Molecule `C[C@@H](N)c1ccc(C(=O)Nc2ccnc3[nH]ccc23)cc1` + C[C@]1(O)C[C@@H](c2nc(-c3ccc4ccc(-c5ccccc5)nc4c3)c3c(N)nccn32)C1 [OSI906] (partner dose 2 µM) showed a cell count of 72.6%. In turn, `C[C@@H](N)c1ccc(C(=O)Nc2ccnc3[nH]ccc23)cc1` + CN1CCN(c2ccc3nc(-c4c(N)c5c(F)cccc5[nH]c4=O)[nH]c3c2)CC1 [Dovitinib] (partner dose 0.5 µM) came in with a cell count of 65.8%. Still for that read-out and setting: to `C[C@@H](N)c1ccc(C(=O)Nc2ccnc3[nH]ccc23)cc1` + CS(=O)(=O)CCNCc1ccc(-c2ccc3ncnc(Nc4ccc(OCc5cccc(F)c5)c(Cl)c4)c3c2)o1 [lapatinib] (partner dose 4 µM) belongs 73.6%; to `C[C@@H](N)c1ccc(C(=O)Nc2ccnc3[nH]ccc23)cc1` + COc1cc2c(Oc3ccc4[nH]c(C)cc4c3F)ncnc2cc1OCCCN1CCCC1 [cediranib] (partner dose 2 µM), 56.1%; to `CCCCCCCCCCCCCCCCCCOP(=O)([O-])OC1CC[N+](C)(C)CC1` [Perifosine] + C[C@@H]1CCN(C(=O)CC#N)C[C@@H]1N(C)c1ncnc2[nH]ccc12 [CP690550] (partner dose 5 µM), 80.4%.

The molecule `C[C@@H](N)c1ccc(C(=O)Nc2ccnc3[nH]ccc23)cc1` + C#Cc1cccc(Nc2ncnc3cc(OCCOC)c(OCCOC)cc23)c1 [erlotinib] (partner dose 4 µM) showed a cell count of 111%. On the same count and under the same terms, the same measure for `CCCCCCCCCCCCCCCCCCOP(=O)([O-])OC1CC[N+](C)(C)CC1` [Perifosine] + CO[C@H]1C[C@@H]2CC[C@@H](C)[C@@](O)(O2)C(=O)C(=O)N2CCCC[C@H]2C(=O)O[C@H]([C@H](C)C[C@@H]2CC[C@@H](OCCO)[C@H](OC)C2)CC(=O)[C@H](C)/C=C(\C)[C@@H](O)[C@@H](OC)C(=O)[C@H](C)C[C@H](C)/C=C/C=C/C=C/1C [everolimus] (partner dose 0.1 µM): 76.4%. On the same count and under the same terms, to `C[C@@H](N)c1ccc(C(=O)Nc2ccnc3[nH]ccc23)cc1` + COc1ccc(Cl)c(Nc2nc3ccccc3nc2NS(=O)(=O)c2cccc(NC(=O)C(C)(C)N)c2)c1 [XL147] (partner dose 4 µM) belongs 52%; to `CCCCCCCCCCCCCCCCCCOP(=O)([O-])OC1CC[N+](C)(C)CC1` [Perifosine] + C=CCn1c(=O)c2cnc(Nc3ccc(N4CCN(C)CC4)cc3)nc2n1-c1cccc(C(C)(C)O)n1 [MK1775] (partner dose 0.1 µM), 47.4%; to `CCCCCCCCCCCCCCCCCCOP(=O)([O-])OC1CC[N+](C)(C)CC1` [Perifosine] + CN1CCN(c2ccc3nc(-c4c(N)c5c(F)cccc5[nH]c4=O)[nH]c3c2)CC1 [Dovitinib] (partner dose 0.5 µM), 60.8%.

On to `Cn1sc(=O)n(Cc2ccccc2)c1=O` + CN(NC(=O)CC(=O)NN(C)C(=S)c1ccccc1)C(=S)c1ccccc1 [STA4783] (partner dose 0.03 µM), for which the cell count is 23.5%. On the same count and under the same terms, to `Cn1sc(=O)n(Cc2ccccc2)c1=O` + CO[C@@H]1[C@H](N(C)C(=O)c2ccccc2)C[C@H]2O[C@]1(C)n1c3ccccc3c3c4c(c5c6ccccc6n2c5c31)C(=O)NC4 [Midostaurin] (partner dose 0.4 µM) belongs 82.9%.

For the origin of these results see the supplement of paper PMC4604168 (melanoma cell lines).
